Source: patent US7728034B2, “Treating neurological disorders using selective antagonists of persistent sodium current” (Allergan, Inc., priority 2003, dated 2010)
pEC50: −log10 of the molar value.

Assays:
[1] = biological target: T1, HEK cells expressing Nav1.3 channels (Homo sapiens, UniProt Q9NY46); experiment: cell-based
[2] = biological target: T1, HEK cells expressing Nav1.3 channels

T1 sequence (Q9NY46 whole entry): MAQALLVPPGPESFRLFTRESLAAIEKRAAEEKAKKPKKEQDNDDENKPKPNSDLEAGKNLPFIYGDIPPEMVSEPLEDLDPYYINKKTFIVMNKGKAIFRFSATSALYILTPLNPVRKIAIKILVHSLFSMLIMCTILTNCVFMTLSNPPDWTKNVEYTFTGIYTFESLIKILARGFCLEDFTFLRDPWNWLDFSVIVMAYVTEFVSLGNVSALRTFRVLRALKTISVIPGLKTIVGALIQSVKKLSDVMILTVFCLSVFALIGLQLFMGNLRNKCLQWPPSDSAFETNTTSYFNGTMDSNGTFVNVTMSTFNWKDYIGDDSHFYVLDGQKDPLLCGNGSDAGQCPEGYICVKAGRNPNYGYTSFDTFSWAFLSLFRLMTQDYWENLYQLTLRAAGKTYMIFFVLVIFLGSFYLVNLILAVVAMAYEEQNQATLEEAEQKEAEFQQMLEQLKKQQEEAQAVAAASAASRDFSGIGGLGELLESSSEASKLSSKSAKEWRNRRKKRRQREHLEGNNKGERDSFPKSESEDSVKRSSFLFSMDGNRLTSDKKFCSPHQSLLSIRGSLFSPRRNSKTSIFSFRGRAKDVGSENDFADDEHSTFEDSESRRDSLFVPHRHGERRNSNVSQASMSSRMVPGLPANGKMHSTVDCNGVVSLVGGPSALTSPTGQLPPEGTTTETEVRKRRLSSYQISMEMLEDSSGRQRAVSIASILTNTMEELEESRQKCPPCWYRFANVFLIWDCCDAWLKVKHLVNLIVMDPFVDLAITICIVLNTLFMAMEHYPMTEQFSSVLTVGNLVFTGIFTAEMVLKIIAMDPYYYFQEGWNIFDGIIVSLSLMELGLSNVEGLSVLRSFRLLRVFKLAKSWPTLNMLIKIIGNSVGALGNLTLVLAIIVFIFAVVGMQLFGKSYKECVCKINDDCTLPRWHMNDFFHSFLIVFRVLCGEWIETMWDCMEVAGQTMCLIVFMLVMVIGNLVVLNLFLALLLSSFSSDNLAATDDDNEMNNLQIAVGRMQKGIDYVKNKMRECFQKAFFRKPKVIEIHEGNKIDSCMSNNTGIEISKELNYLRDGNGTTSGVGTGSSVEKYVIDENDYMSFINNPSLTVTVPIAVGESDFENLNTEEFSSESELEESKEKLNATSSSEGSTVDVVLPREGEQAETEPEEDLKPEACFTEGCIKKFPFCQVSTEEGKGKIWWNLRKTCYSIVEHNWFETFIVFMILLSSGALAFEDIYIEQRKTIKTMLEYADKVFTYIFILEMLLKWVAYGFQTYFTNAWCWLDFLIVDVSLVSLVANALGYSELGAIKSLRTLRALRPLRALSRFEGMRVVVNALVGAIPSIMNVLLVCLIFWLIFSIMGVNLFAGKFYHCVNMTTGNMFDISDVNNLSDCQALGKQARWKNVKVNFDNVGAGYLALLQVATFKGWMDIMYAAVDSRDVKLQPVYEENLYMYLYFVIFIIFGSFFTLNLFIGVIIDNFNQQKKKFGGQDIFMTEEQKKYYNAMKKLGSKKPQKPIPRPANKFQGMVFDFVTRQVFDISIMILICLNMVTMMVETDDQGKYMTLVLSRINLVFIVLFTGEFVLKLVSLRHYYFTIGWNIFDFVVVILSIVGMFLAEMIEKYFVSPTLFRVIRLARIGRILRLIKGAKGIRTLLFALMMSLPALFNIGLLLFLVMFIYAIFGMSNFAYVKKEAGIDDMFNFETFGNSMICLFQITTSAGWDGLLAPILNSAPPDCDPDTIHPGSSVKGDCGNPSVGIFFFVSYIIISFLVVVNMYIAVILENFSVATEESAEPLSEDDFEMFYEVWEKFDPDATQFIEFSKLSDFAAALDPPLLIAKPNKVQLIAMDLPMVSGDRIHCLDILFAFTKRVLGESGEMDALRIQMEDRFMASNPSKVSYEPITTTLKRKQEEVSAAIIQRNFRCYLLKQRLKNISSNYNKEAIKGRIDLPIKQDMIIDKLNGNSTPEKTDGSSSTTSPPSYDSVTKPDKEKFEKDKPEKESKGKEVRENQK

O=C(NCCCCc1ccccc1)c1cccs1 [Compound 1, thiophene-2-carboxylic acid (4-phenyl-butyl)-amide]
pEC50 [1]: 5.43 | reduction of the transient current ([2]; 3 μM, 200 msec pulse to 0 mV from -90 mV, FIG. 4): 16% | expected effect on the transient current at the estimated plasma concentration ([2]; at approximately 5 μM): only a limited effect | expected reduction of the persistent sodium current at the estimated plasma concentration ([2]; at approximately 5 μM): more than 60% | selectivity for blocking the persistent sodium current relative to the transient sodium current ([2]; dose-response analysis over a four order of magnitude range, FIG. 5): significant selectivity
